Experimental data published in publication PMC4336329 (PLoS ONE, 2015).
In all, about 310,000 compounds went through this assay and about 14,000 (4.5%) showed an effect of 50% or more. Effects have a minus sign here. This is one part of the list.

target: human ether-à-go-go-related gene (hERG) potassium channel (human, UniProt Q12809); experiment: primary screen, population patch clamp on CHO cells stably expressing hERG
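Also: peak tail current of the secondary pulse compared with the same well before compound.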

Chain of human ether-à-go-go-related gene (hERG) potassium channel (Q12809 whole entry, looked up): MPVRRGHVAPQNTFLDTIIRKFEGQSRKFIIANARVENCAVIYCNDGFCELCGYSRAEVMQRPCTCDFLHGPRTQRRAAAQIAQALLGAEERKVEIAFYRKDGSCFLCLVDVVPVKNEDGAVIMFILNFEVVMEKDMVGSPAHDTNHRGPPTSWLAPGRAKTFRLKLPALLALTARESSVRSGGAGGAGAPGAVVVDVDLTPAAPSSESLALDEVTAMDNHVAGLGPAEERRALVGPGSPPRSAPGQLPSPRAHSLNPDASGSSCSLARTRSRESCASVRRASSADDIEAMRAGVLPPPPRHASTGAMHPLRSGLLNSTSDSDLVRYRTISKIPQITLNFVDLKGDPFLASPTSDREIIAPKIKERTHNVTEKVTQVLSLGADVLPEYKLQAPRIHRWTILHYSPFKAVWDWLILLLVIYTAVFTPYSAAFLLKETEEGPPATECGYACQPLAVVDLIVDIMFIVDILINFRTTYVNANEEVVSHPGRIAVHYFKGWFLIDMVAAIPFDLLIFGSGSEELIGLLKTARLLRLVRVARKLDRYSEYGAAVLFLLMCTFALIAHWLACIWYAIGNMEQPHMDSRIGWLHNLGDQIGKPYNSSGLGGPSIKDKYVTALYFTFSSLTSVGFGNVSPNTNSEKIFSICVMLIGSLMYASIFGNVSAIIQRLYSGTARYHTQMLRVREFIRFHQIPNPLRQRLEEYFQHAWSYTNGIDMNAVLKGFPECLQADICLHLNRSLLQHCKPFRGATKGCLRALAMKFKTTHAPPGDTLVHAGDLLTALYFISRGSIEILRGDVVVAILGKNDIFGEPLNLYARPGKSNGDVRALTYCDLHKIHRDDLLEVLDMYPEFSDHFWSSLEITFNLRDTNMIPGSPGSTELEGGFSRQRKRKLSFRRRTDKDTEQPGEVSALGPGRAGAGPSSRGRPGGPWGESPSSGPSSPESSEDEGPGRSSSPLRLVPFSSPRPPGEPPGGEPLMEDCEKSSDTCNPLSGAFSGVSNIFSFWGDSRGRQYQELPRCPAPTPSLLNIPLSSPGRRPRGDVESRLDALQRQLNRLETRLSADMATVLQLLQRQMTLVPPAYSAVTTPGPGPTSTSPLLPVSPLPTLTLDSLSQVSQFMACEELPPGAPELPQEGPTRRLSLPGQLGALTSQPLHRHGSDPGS

SMILES | hERG current change (%, negative = inhibition) at 10uM
CC(NC(=O)c1ccncc1)C(c1cccs1)N1CCOCC1 (stereo not shown) | -3.52%
CCc1nnc(NS(=O)(=O)c2ccc(NC(=S)NC(=O)/C=C/c3ccc(F)cc3)cc2)s1 | 6.15%
C/C(=N\NC(=O)c1ccc2c(c1)OCO2)c1ccc2c(c1)OCO2 | 13.2%
Cc1cccc2cc(CN(CCN(C)C)C(=S)Nc3ccccc3)c(=O)[nH]c12 | -24%
O=C(O)COCc1nc2ccccc2[nH]1 | -6.31%
C(=C\n1nnc2ccccc21)/c1ccc[nH]1 | 3.8%
CCOC(=O)C(=O)NC1CCSC1=O (stereo not shown) | -0.865%
COCC(C)OC(=O)c1c(N)n(CCCN2CCOCC2)c2nc3ccccc3nc12 (stereo not shown) | -9.69%
C=CCc1cccc2cc(C(=O)NCCOC)c(=O)oc12 | -21.7%
O=C(c1ccco1)N1CCN(S(=O)(=O)c2ccc(S(=O)(=O)NC3CCCCC3)cc2)CC1 | -43.8%
CC(=NCCCN(C)C)C1=C(O)c2ccccc2C1=O | -14.5%
O=C(CN1C(=O)NC(c2ccccc2)(c2ccccc2)C1=O)Nc1cccnc1Cl | -31.4%
Clc1ccc(Sc2cc(Cl)c(-c3ccccc3)nn2)cc1 | 0.12%
Cc1ccccc1OCC(O)CN1CCN(c2ccccn2)CC1.Cl (stereo not shown) | -48.8%
Cc1cc2ccccn2c1C(=O)c1ccc(F)cc1 | 3.86%
CCCc1[nH]nc2c1C1(CCOC1C)C(C#N)=C(N)O2 (stereo not shown) | 4.44%
CCOc1ccccc1NC(=O)C(NCCc1ccc(OC)cc1)c1ccccc1 (stereo not shown) | -4.48%
Cc1cc(NC(=O)Cn2nc3c(cc2=O)CCCC3)ccc1Br | -4.02%
CCOCCCNC(=O)C1CCCN(S(=O)(=O)c2cccc3nsnc23)C1 (stereo not shown) | 17.9%
CCN(CC)S(=O)(=O)c1ccc(NC(=O)CSc2ncnc3ccccc23)cc1 | -8.71%
Cn1c(=O)cc(OCCCC(=O)N2CCN(Cc3ccc4c(c3)OCO4)CC2)c2ccccc21 | -26.2%
O=C(/C=C/c1ccc(Cl)cc1Cl)NC(=S)Nc1ccc(CN2CCOCC2)cc1 | -3.32%

SMILES | hERG current change (%, negative = inhibition) at 10uM
COc1cccc(-n2cc(CNC(=O)C3CCC(=O)N(C4CC4)C3)cn2)c1 (stereo not shown) | -11%
O=[N+]([O-])c1ccccc1/C=N/n1c(COc2ccccc2)n[nH]c1=S | 2.43%
CC(C)N=C1NN=C(c2ccc(F)cc2)CS1 | -10.1%
FC(F)(F)c1ccc(Nc2nnnc3ccccc23)cc1 | 4.83%
O=C(NCCCN1CCOCC1)/C(=C/c1cccnc1)NC(=O)c1ccccc1 | -25%
COCCNc1nc(N)c([N+](=O)[O-])c(N2CCCCCC2)n1 | -6.79%
CC(Sc1nnc(COc2ccccc2)n1-c1ccccc1)C(=O)O (stereo not shown) | 17.8%
CC1=NCCN1CCNC(=O)Nc1ccc(C(C)(C)C)cc1 | 7.42%
COC(=O)c1ccc(/C=N/NC(=O)c2ccc3nc[nH]c3c2)cc1 | 19.3%
CC(C)C(c1nnnn1Cc1ccco1)N1CCN(c2nc3ccccc3s2)CC1 (stereo not shown) | -6.54%
C#CCOCCOCCOCCNc1nc(N2CCN(C(=O)C(Cc3cc4ccccc4[nH]3)n3cc(C(N)Cc4ccc(O)cc4)nn3)CC2)nc(N2CCN(C(=O)C(CCC(=O)O)n3cc(C(N)C(C)CC)nn3)CC2)n1.Cl (stereo not shown) | 21.5%
Cc1c(/C=N/NC(=O)C(NC(=O)c2ccc3c(c2)OCO3)C(C)C)c2ccccc2n1C (stereo not shown) | -2.48%
CCCCCCOC(=O)c1ccc(OC(=O)c2cccnc2)cc1 | 12.6%
Cc1cc(Br)cc(Cl)c1OCC(=O)NC(=O)NCc1ccccc1 | 6.27%
O=C(NCC(c1ccco1)N1CCc2ccccc2C1)c1ccc(Br)cc1 (stereo not shown) | -12.6%
O=C(O)CC(c1ccccc1)c1ccccc1 | -33.8%
O=C(O)CCSc1nnc(COc2cccc3ccccc23)n1-c1cccc(Cl)c1 | 22.5%
Cc1ccc(NC(=S)NCc2ccc3[nH]c4c(c3c2)CCCC4)cc1 | -1.45%
CN(CC(=O)NCC1CCCCC1)S(=O)(=O)c1ccc(Cl)cc1 | 8.46%
O=C(COC(=O)c1cccs1)NC1CCCCC1 | 2.51%
Cc1ccc(OCC(=O)N/N=C\c2ccncc2)c(C)c1 | -33.6%
